Assay results taken from publication PMC8915838 (Proceedings of the National Academy of Sciences of the …, 2022).
“And” between values parts separate entries of the source, which are not always exact repeats. Equal values may be shown once.

Biological target: the molecule itself
Test: cross-linking

B1: LTB4 receptor 1 (BLT1) (receptor)
chain: MNTTSSAAPPSLGVEFISLLAIILLSVALAVGLPGNSFVVWSILKRMQKRSVTALMVLNLALADLAVLLTAPFFLHFLAQGTWSFGLAGCRLCHYVCGVSMYASVLLITAMSLDRSLAVARPFVSQKLRTKAMARRVLAGIWVLSFLLATPVLAYRTVVPWKTNMSLCFPRYPSEGHRAFHLIFEAVTGFLLPFLAVVASYSDIGRRLQARRFRRSRRTGRLVVLIILTFAAFWLPYHVVNLAEAGRALAGQAAGLGLVGKRLSLARNVLIALAFLSSSVNPVLYACAGGGLLRSAGVGFVAKLLEGTGSEASSTRRGGSLGQTARSGPAALEPGPSESLTASSPLKLNELN
stoichiometry N: 2 and 3
